Reference: the supplement of paper PMC3334620
Over roughly 33,000 sequences, “E-score (-0.5 to 0.5)” has its median near -0.036; the highest 2% begin near 0.37. The list shows a part of the results.

The sequences below were run against T1, Yer064c (UniProt P40041) (assay: PBM E-score (8-mer binding enrichment) (E-score (-0.5 to 0.5)); higher = stronger / more preferred TF binding; most listed sequences are background and not binding sites). Conditions: protein concentration: 200 nM; construct: GST-full length.
T1 sequence: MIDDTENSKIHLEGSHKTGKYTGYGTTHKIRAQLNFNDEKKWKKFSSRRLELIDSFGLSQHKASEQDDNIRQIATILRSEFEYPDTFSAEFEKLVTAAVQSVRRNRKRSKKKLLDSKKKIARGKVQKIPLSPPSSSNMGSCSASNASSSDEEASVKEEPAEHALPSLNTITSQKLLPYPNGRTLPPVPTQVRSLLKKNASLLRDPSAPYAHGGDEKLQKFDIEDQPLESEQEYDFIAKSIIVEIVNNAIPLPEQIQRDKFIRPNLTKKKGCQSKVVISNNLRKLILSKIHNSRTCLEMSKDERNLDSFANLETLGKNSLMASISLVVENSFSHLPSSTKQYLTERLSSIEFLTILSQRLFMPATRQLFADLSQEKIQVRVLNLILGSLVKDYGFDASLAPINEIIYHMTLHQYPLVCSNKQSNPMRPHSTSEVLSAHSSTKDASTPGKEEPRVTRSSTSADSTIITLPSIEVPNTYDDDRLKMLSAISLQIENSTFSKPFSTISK
Procedure, shortened: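 Yeast transcription factors carrying a GST tag, as full-length proteins or DNA-binding domains, were produced by PURExpress in vitro transcription/translation. About 100-200 nM protein was applied to universal all-10-mer Agilent arrays, double-stranded by primer extension on fresh or once-stripped slides. Bound protein was detected with fluorescent anti-GST, and scans were normalised with masliner. The Universal PBM Analysis Suite gave each ungapped eight-base word, pooled with its reverse complement, an E-score, a modified Wilcoxon-Mann-Whitney statistic.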

Sequence | PBM E-score
ACATATCC | -0.11
ACTGTTCC | 0.113
TAGATGCA | -0.109
GAGCCTCC | 0.054
CCCTTCCA | -0.222
GATTGAAC | 0.196
ACGATATC | 0.0808
ACCCAACT | 0.0803
CAATAAAC | 0.0151
AATTGTTA | 0.0306
AATGCTCG | -0.0768
CAAAAACA | -0.091
AACCCCGC | -0.154
CCAGCCTA | -0.0998
CCGTGTTC | 0.0684
TACTCAAA | 0.201
ACTTTGCA | 0.106
ACCGATCA | 0.133
ATTGGTAC | -0.13
TACATGCA | -0.169
AACGAATC | 0.266
AGTCCCAT | 0.249
TCTGTCCA | -0.0581
GAACCCTA | -0.0228
AGAGTTTC | -0.0636

Sequence | PBM E-score
CAGGAGTA | 0.0894
CGGATTTC | -0.156
AAATCTCG | 0.00944
TCAGGGGA | 0.0738
CCACCTTC | -0.153
CCCCGCAA | -0.218
CCTCTCAA | -0.103
CAGTGAGG | -0.0837
GGTTCGAA | 0.164
ACAAGCAG | -0.156
CACTTGCG | -0.0335
ATGTGCGC | -0.168
CGCTCGGC | -0.203
CCCGACCA | -0.136
AGGCGTAG | -0.237
CGGCTTCA | -0.033
CAGTGGAG | 0.0756
GTCCGCAC | 0.0458
GATGAGCA | 0.189
CAATTGCA | -0.187
ACGGACGT | -0.244
AATAGAAA | -0.119
CACAAAGC | -0.00986
GTTGATTA | 0.381
CAGCACAA | 0.0362

Sequence | PBM E-score
ACGGGGCT | -0.209
CTAATCAG | 0.286
TATCTACA | 0.093
CCGCCATC | -0.0589
GAGGTAAC | -0.0374
ACAAGAAC | 0.0777
CGCGGCCA | -0.182
AATGGCTG | -0.057
AGAACTTG | 0.0785
CATCCTCC | -0.162
GTAGCTTA | -0.0474
ATCATTAC | 0.219
ATTACTCG | 0.202
ATACTGTG | -0.0156
ATGTGAGA | 0.151
CGTGGCTC | 0.131
CAACCCTA | -0.177
ATAGTCGC | 0.389
CCTCGCCC | -0.0406
CCGCATTC | -0.08
ACCACTCA | 0.127
AAGCCAGC | -0.181
CCGGCCTA | -0.0915
CTTCTATC | -0.185
GCACATGC | -0.15

Sequence | PBM E-score
GATTAGAC | 0.201
AGCGGACC | -0.111
CCGGATTA | -0.0124
GGTGCTAC | -0.273
CGTACATC | -0.162
ATGAGGGG | -0.125
ATACTCAC | 0.312
GAGTAAGC | -0.0288
CATAAACG | -0.0361
ACACATCG | 0.158
ATTGCTTA | 0.0262
ACCAGAAT | -0.0478
CTGTCGCA | -0.172
ATAACGGC | -0.188
CAGCTTAG | -0.175
ATTTGCAC | -0.204
CCACAGCG | -0.0572
GCCCGCCA | -0.295
GGCGTCAA | -0.096
ATTTTGTG | 0.129
ACCCGCAT | 0.126
CCTTGATC | 0.00176
CGCCCCAG | -0.056
ACATGAAG | -0.0539
CACAATGG | 0.0125

Sequence | PBM E-score
CATCATTA | 0.161
AGCGGCGG | -0.0218
AGCATATA | 0.0717
GAGCATGC | -0.063
TTATATAA | 0.303
CTCTACAA | 0.032
GGGTCAGA | 0.00219
AGATACAA | 0.0771
CACCGAGA | -0.0636
ACAGCGGA | -0.121
AAGCGGGA | -0.239
CCAACTGC | 0.00331
AACCGCAC | -0.0658
AGGGAATA | -0.175
TATATATA | 0.147
ATGCATGG | -0.0397
AGACCTCC | -0.138
CAAGCATC | -0.337
ATCTGGTA | -0.17
GTAAGTTA | 0.0864
ACGTACGC | -0.124
CGTTATTA | 0.00867
ACAAGGAC | 0.2
CTCGTCTC | -0.0892
CTCTTCAG | -0.172

Sequence | PBM E-score
GAAGTGGC | -0.115
CGTTTGTA | -0.0911
GCCGTTTA | -0.0806
CCTACGGA | -0.115
CCGACATC | -0.262
AGGCGCTG | -0.102
ATGTTCAC | -0.136
GAGAATCA | 0.392
TATCCGCA | 0.00068
GATGTCAA | 0.014
CATGGGGA | -0.0954
ATTCCAGA | 0.0393
AGTGCGGG | -0.196
CATGCTCC | -0.197
TGGAAAAA | -0.074
CGACCAAG | -0.148
AGTACTAG | 0.147
AGAACAGA | -0.0227
CTTTTGAC | 0.161
CGATAAAA | -0.0985
ACCCTTAC | -0.0967
CCTCAGGC | -0.147
AACCTTGC | -0.0882
CTTTCAAC | -0.0721
CGGACTCC | 0.191

Sequence | PBM E-score
AGGGTTAG | -0.0462
ACATATGA | 0.233
GTCGTCCA | 0.108
AAGACCGG | -0.265
CGGTGAAC | -0.0471
CGATATAG | -0.0616
CACGTCTG | 0.0273
CAGCTAGG | -0.22
ACGTCACA | 0.00414
GCGGAACA | 0.0307
GGGCGACC | -0.298
AAATACAC | -0.0541
CAACTGCA | -0.0203
AGCGCCCC | -0.313
CTTTGTTA | 0.0755
CACGCTCG | -0.00798
AGTGCAAA | 0.11
ACCCGTCA | -0.0767
CGGGACCC | -0.259
ATTATGAC | 0.277
CTTGAGGA | -0.0149
AATGGGAC | -0.0785
CACGATCG | 0.12
CAGGTGCA | -0.139
GTGAGCAC | 0.0206

Sequence | PBM E-score
CAAATCGG | -0.0978
CAACATAA | 0.0238
AACCCTGG | -0.0176
AGTGGGTG | 0.152
CTTTTTGA | 0.195
CCTTGACA | -0.237
CGCTGTTA | -0.152
AATGTGTG | 0.0939
ACTTAGCC | 0.141
ACATATCT | 0.0318
GTGTCGAA | -0.00343
CCACCACA | -0.168
CCGACTTA | 0.263
AACAAAGG | -0.0406
AGCAGGAG | -0.0429
AGAGTCAG | 0.457
ATTGTGTA | 0.0623
AACCTAAA | 0.0669
AGATGATA | 0.0471
CACACTTC | -0.07
CCCGTCAA | -0.171
CATTGCCG | -0.131
AGTAGACA | 0.1
GATGAATA | 0.176
GAAGCCAC | -0.00765

Sequence | PBM E-score
AAACAGCT | 0.00527
GAAGCAGA | -0.0206
AGGTACGA | 0.00497
AATGAATC | 0.39
CATGAGTC | 0.481
TAGAGCCA | -0.0413
CACTTCTG | -0.157
AGCTGCTA | -0.165
CACTAATC | 0.191
GCTACGAC | 0.13
CATTTTTA | -0.173
CAGCGCGC | -0.264
AACGACTC | 0.427
ACCGGCAG | -0.243
CTGGAAAC | -0.0299
GCTACACA | 0.161
CTACATTC | -0.22
GCCCGTCA | -0.35
GGAAAACC | -0.286
